Hit rate of the full screen: of about 310,000 compounds, about 14,000 (4.5%) showed an effect of 50% or more. The effect is printed as a negative number. The list shows a part of the results.
Target: human ether-à-go-go-related gene (hERG) potassium channel (human, UniProt Q12809)
Assay: primary screen, population patch clamp on CHO cells stably expressing hERG
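Also: peak tail current of the secondary pulse compared with the same well before compound.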

Chain of human ether-à-go-go-related gene (hERG) potassium channel (Q12809 whole entry, looked up): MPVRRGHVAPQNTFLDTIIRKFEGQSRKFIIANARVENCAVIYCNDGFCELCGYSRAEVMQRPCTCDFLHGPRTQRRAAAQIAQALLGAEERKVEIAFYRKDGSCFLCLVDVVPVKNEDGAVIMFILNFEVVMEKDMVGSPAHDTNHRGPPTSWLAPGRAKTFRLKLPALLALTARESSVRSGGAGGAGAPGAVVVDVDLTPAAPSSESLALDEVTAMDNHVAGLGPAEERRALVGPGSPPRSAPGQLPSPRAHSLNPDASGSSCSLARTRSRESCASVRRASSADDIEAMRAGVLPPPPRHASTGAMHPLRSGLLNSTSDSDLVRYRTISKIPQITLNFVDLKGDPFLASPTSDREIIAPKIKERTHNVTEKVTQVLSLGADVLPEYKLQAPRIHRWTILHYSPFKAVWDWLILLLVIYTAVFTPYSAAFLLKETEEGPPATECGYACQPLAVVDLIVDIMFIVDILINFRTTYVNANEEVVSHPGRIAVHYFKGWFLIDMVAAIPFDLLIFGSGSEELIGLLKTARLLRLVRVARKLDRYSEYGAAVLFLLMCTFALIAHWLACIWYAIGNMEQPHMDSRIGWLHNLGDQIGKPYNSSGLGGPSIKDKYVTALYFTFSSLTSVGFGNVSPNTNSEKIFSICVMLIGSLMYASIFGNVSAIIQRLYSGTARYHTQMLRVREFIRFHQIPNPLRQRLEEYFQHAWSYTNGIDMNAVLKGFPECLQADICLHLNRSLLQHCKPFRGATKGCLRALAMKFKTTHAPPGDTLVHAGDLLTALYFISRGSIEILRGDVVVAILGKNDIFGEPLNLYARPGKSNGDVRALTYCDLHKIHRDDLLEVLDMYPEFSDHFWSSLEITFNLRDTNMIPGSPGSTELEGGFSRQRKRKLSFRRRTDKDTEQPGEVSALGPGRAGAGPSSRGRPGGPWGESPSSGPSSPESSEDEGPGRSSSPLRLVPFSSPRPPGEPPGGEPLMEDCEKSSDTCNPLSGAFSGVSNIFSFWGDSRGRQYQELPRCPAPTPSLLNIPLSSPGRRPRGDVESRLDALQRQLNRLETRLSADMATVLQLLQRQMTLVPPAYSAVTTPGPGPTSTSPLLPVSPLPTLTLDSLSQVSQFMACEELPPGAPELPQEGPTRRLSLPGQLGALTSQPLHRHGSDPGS

Compared with `COC(=O)C1C2C=CC(C3CC23)C1C(=O)OCC(=O)c1ccc(OC)cc1` (centres unmarked), `CCN(CC(=O)Nc1ccc(OC)cc1)C(=O)c1ccc(NS(=O)(=O)c2ccc(C(C)=O)cc2)cc1` is higher in “hERG current change (%, negative = inhibition) at 10uM” value: 1.88% for the first, 12.8% for the second.

First: COc1cc(C(=O)NCC(=O)NC(C)c2ccc(-n3ccnc3)cc2)cc(OC)c1OC (centres unmarked)
Second: COc1cc(C(=O)Nc2ccc3ccccc3c2)cc(OC)c1OC
The “hERG current change (%, negative = inhibition) at 10uM” value of the first is lower: -3.06% for the first, -1.75% for the second.

Compared with `COc1ccc(C2/C(=C(\O)c3ccc4c(c3)OCCO4)C(=O)C(=O)N2CCCn2ccnc2)cc1` (centres unmarked), `COc1ccc(-c2cc(C(=O)NCCN3CCOCC3)c3ccccc3n2)cc1` is lower in “hERG current change (%, negative = inhibition) at 10uM” value: 8% for the first, -24.7% for the second.

Compared with `CNC(=O)c1c(NC(NC(=O)c2ccco2)C(=O)c2ccc(Cl)cc2)sc2c1CCCC2` (centres unmarked), `CC(=O)c1ccc(OC(NC(=O)c2ccco2)C(Cl)(Cl)Cl)cc1` (centres unmarked) is higher in “hERG current change (%, negative = inhibition) at 10uM” value: -20.3% for the first, -7.17% for the second.

Compared with `CCOC(=O)N1CCN(c2nc(-c3ccc(Cl)cc3)cs2)CC1`, `C/C(=N\N1CCN(c2ccc(Cl)cc2)CC1)c1ccco1` is higher in “hERG current change (%, negative = inhibition) at 10uM” value: -8.2% for the first, -6.54% for the second.

Compared with `CN(C)C(=O)c1ccc(NC(=O)CN2C(=O)NC3(CCCc4ccccc43)C2=O)cc1` (centres unmarked), `CN(C)c1ccc(-c2nnn(CC(=O)Nc3ccccc3N3CCOCC3)n2)cc1` is lower in “hERG current change (%, negative = inhibition) at 10uM” value: 9.2% for the first, -15.1% for the second.

Going from `COc1ccc(CCN(C)C(=O)c2cc(=O)c3ccccc3o2)cc1OC` to `COc1ccc(CCNC(=O)c2cc(C(C)C)on2)cc1OC`, the “hERG current change (%, negative = inhibition) at 10uM” value falls from 7.6% to 3.45%.

Going from `CN(CCCNC(=O)c1cccn2c(=O)c3ccccc3nc12)Cc1ccccc1` to `COc1ccc(CNc2nc(SCC(=O)NCc3ccco3)nc3ccccc23)cc1`, the “hERG current change (%, negative = inhibition) at 10uM” value rises from -74.1% to -68.9%.

First: COc1ccc(C2CC(=O)NC3=C2C(=O)CCC3)cc1Cl (centres unmarked)
Second: COc1ccc(NS(=O)(=O)c2ccc3c(c2)CCN3C(=O)CCC(=O)O)cc1OC
The “hERG current change (%, negative = inhibition) at 10uM” value of the first is lower: 1.44% for the first, 5.37% for the second.

Compared with `COc1cc2oc(=O)ccc2c(OC)c1CC(O)C(C)(C)O` (centres unmarked), `COc1cc(C(=O)Nc2ccc(-c3nc4cc(C)ccc4o3)c(O)c2)cc(OC)c1OC` is higher in “hERG current change (%, negative = inhibition) at 10uM” value: 8.15% for the first, 16% for the second.

First: NS(=O)(=O)c1cccc(NC(=O)COC(=O)Cc2ccc(Cl)cc2)c1
Second: O=C(COC(=O)COc1cccc(Br)c1)Nc1ccc(F)cc1F
The “hERG current change (%, negative = inhibition) at 10uM” value of the first is lower: -3% for the first, 9.9% for the second.

Going from `Cc1cc(NC(=O)c2ccc([N+](=O)[O-])cc2)n(CCC#N)n1` to `COc1ccc(CNC(=O)Cn2ccc([N+](=O)[O-])n2)cc1OC`, the “hERG current change (%, negative = inhibition) at 10uM” value falls from 11% to 3.22%.

Going from `Cn1c(=O)c2c(SCc3cccnc3)nc(CC(C)(C)C)nc2n(C)c1=O` to `CC(C)(C)n1ncc2c(=O)n(CC(=O)NCc3ccco3)cnc21`, the “hERG current change (%, negative = inhibition) at 10uM” value rises from -59.6% to -4.55%.

Compared with `COc1cc(CNC2CCCCCCC2)cc(Br)c1OCC#N.Cl`, `Cl.O=C(CNC1CCCCCC1)c1cccs1` is higher in “hERG current change (%, negative = inhibition) at 10uM” value: -22.4% for the first, 0.333% for the second.

Going from `C/C(=N\NC(=O)CNc1ccc(F)cc1)c1cc2ccccc2o1` to `C/C(=N\NC(=O)c1cc(C)nc2ccccc12)c1cccs1`, the “hERG current change (%, negative = inhibition) at 10uM” value rises from -26.6% to -9.87%.

Compared with `COc1ccc(NC(=O)CCCCC#Cc2ccccc2)cc1`, `CC(NC(=O)COc1ccccc1)C1COc2ccccc2O1` (centres unmarked) is lower in “hERG current change (%, negative = inhibition) at 10uM” value: 4.46% for the first, -18.9% for the second.

Going from `Cc1cc(Cl)ccc1OCC(=O)Nn1c(C)ccc1C` to `Cc1c(C)n(Cc2ccccc2)c2ncnc(Cl)c12`, the “hERG current change (%, negative = inhibition) at 10uM” value rises from 3.73% to 8.96%.

Going from `CC1O[C@@H](O[C@H](C)CC[C@@H](C)O[C@H]2OC(C)[C@@H](O)C[C@H]2O)C(O)C[C@H]1O` (some centres unmarked) to `C[C@@H]1CC[C@@]2(O[C@H](CCO)C[C@H](O)[C@H]2O)O1`, the “hERG current change (%, negative = inhibition) at 10uM” value rises from 19.5% to 23.2%.

Going from `O=C(C1=C[C@@H](c2coc3ccccc3c2=O)C[C@@H](OCCCCO)O1)N1CCN(Cc2ccccc2)CC1` to `O=C(Nc1ccc(F)cc1F)N1CCN(C/C=C/c2ccccc2)CC1`, the “hERG current change (%, negative = inhibition) at 10uM” value rises from -57.9% to -39.9%.

Compared with `O=S(=O)(Nc1ccc(Cl)cn1)c1cnc(Cl)c(Br)c1`, `CN(C)CCNC(=O)c1cccc(S(=O)(=O)Nc2ccccc2F)c1` is higher in “hERG current change (%, negative = inhibition) at 10uM” value: -4.3% for the first, 12.5% for the second.

Going from `Cc1nnc(SCc2nnc(-c3ccccc3)o2)n(N)c1=O` to `Cn1c(SCC(=O)c2ccc(-c3ccccc3)cc2)nnc1-c1ccco1`, the “hERG current change (%, negative = inhibition) at 10uM” value falls from 2.01% to -13.3%.

Going from `Cc1cccc(N(CC(=O)N/N=C/c2ccc(C(=O)O)cc2)S(=O)(=O)c2ccccc2)c1C` to `CCOc1ccc(N2CC(NC(=O)c3ccc4ccccc4c3)CC2=O)cc1` (centres unmarked), the “hERG current change (%, negative = inhibition) at 10uM” value falls from 0.123% to -8.16%.

First: N#C/C(=C\c1ccccc1)C(=O)Nc1nncs1
Second: CC(Sc1nnnn1C)C(=O)Nc1ccccc1 (centres unmarked)
The “hERG current change (%, negative = inhibition) at 10uM” value of the first is higher: 10.4% for the first, 7.29% for the second.

First: COc1ccc(/C=N/N2C(=N)SCC2=O)cc1
Second: CCC(C)NC(=O)CSc1nc2ccsc2c(=O)n1-c1ccc(OC)cc1 (centres unmarked)
The “hERG current change (%, negative = inhibition) at 10uM” value of the first is higher: 10.1% for the first, -3.72% for the second.

Compared with `O=C1c2ccncc2C(=O)N1CNc1ccc(Cl)cc1`, `O=C(Nc1ccc(F)cc1)C1CCCN1S(=O)(=O)c1cccc2nsnc12` (centres unmarked) is lower in “hERG current change (%, negative = inhibition) at 10uM” value: 16.5% for the first, -29.6% for the second.

Compared with `CC(C)(C)c1ccc2c(c1)N(CC(=O)O)C(=O)CO2`, `COC(=O)N(C)CCCC1(C)C(=O)N(C)c2ccc(O)cc21` (centres unmarked) is higher in “hERG current change (%, negative = inhibition) at 10uM” value: -48.8% for the first, -10.6% for the second.

Compared with `O=C(CSc1nnc(-c2ccccc2F)n1C1CCCCC1)N1CCCC1`, `CS(=O)(=O)N1CCCC(C(=O)N2CCc3ccccc3C2)C1` (centres unmarked) is higher in “hERG current change (%, negative = inhibition) at 10uM” value: -13.1% for the first, 3.18% for the second.

Compared with `COc1cccc(OCC(O)CO)c1` (centres unmarked), `CCC1CCCCN1C(=O)CCCOc1ccccc1` (centres unmarked) is lower in “hERG current change (%, negative = inhibition) at 10uM” value: 1.15% for the first, -16.4% for the second.

Compared with `CC1(C)Cc2cccc(Oc3cc(NN4CCCCC4)c([N+](=O)[O-])cc3[N+](=O)[O-])c2O1`, `Cc1cc(C)cc(OCC(=O)Nc2ccc(N3CCOCC3)cc2N2CCOCC2)c1` is lower in “hERG current change (%, negative = inhibition) at 10uM” value: 20.8% for the first, -6.54% for the second.

Compared with `CNC(=S)N(CCc1c(C)[nH]c2ccc(OC)cc12)Cc1cc(OC)c(OC)c(OC)c1`, `COc1ccc(NC(=S)N(Cc2cccnc2)Cc2cc3cc(OC)c(OC)cc3[nH]c2=O)cc1` is higher in “hERG current change (%, negative = inhibition) at 10uM” value: -5.87% for the first, 16.2% for the second.

Going from `COc1ccccc1NC(=S)NC(=O)C1CC1` to `CS(=O)(=O)N1CCC(C(=O)Nc2ccccc2Sc2ccccc2)CC1`, the “hERG current change (%, negative = inhibition) at 10uM” value falls from 0.654% to -32.2%.

First: N#CCCn1cnc2ccccc21
Second: O=C(O)c1cn(-c2ccccc2)nc1C(=O)O
The “hERG current change (%, negative = inhibition) at 10uM” value of the first is higher: 16.5% for the first, 5.7% for the second.

First: CCN(CC)c1ccc(NC(=S)NC(=O)c2cccs2)cc1
Second: COC(=O)[C@@H](NC(=O)Nc1ccc(S(N)(=O)=O)cc1)C(C)C
The “hERG current change (%, negative = inhibition) at 10uM” value of the first is higher: 2.13% for the first, -1.44% for the second.

Compared with `CCN(CC)S(=O)(=O)c1ccc(Cl)c(NC(=O)CCCCl)c1`, `Cc1ccc(O)c(NC(=O)/C=C/C(=O)O)c1` is higher in “hERG current change (%, negative = inhibition) at 10uM” value: -43.2% for the first, 69.3% for the second.

First: CC1CC(C)CN(C(=O)C2CC(=O)N(c3ccc(F)cc3)C2)C1 (centres unmarked)
Second: CC(C)(C)NC(=O)C1CCN(C(=O)c2ccc(Br)cc2)CC1
The “hERG current change (%, negative = inhibition) at 10uM” value of the first is lower: -18.7% for the first, -8.88% for the second.

First: O=C(C1CC1)N1CCCC(c2ccc(Cl)cc2)=N1
Second: O=C(c1ccc(-n2cnnn2)cc1)N(C1CCCCC1)C1CCCCC1
The “hERG current change (%, negative = inhibition) at 10uM” value of the first is higher: 14.6% for the first, 4.33% for the second.

Compared with `CCOC(=O)C1CCN(c2ncnc3c2cnn3C)CC1`, `CCOC(=O)N1CCC(NC(=O)c2cnn3cccnc23)CC1` is lower in “hERG current change (%, negative = inhibition) at 10uM” value: 6.3% for the first, -7.19% for the second.

Going from `O=C1N[C@@H](Cc2cn(S(=O)(=O)c3ccc(F)cc3)c3ccccc23)C(=O)N[C@H]1Cc1ccccc1` to `CSc1ccccc1OCc1cc(C(=O)N(C)C2CCCc3ccccc32)no1` (centres unmarked), the “hERG current change (%, negative = inhibition) at 10uM” value falls from 11.2% to 11.1%.

Compared with `COCCN(C(=O)c1ccco1)C(C(=O)NC1CCCC1)c1cccs1` (centres unmarked), `CCn1cc(CN2CCC(n3nccc3NC(=O)c3ccccc3C)CC2)cn1` is lower in “hERG current change (%, negative = inhibition) at 10uM” value: -7% for the first, -58.2% for the second.

Going from `Cc1nc2ccccc2nc(C)c1=NOCc1ccc(C#N)cc1` to `N#Cc1ccc(Oc2cccc(C(=O)O)c2)cc1C#N`, the “hERG current change (%, negative = inhibition) at 10uM” value rises from -8.15% to 1.48%.

Compared with `Cc1ccc(/C=C/C(=O)O)cc1S(=O)(=O)NCC1CCCO1` (centres unmarked), `O=C(/C=C/c1cccc([N+](=O)[O-])c1)NCC1CCCO1` (centres unmarked) is lower in “hERG current change (%, negative = inhibition) at 10uM” value: 11.7% for the first, -7.23% for the second.

Compared with `NC(=O)c1ccsc1NC(=O)CSc1nnc2ccccn12`, `CC1(C)C(=O)Nc2ccccc2N1C(=O)CSc1nnc2c(Cl)cc(Cl)cn12` is lower in “hERG current change (%, negative = inhibition) at 10uM” value: 12.5% for the first, -1.93% for the second.

Compared with `N#CC1(NC(=O)COC(=O)c2cc(=O)[nH]c3ccccc23)CCCCC1`, `CSc1cccc(CNC(=O)CC2C(=O)NCCN2CC(C)(C)C)c1` (centres unmarked) is lower in “hERG current change (%, negative = inhibition) at 10uM” value: 14% for the first, 2.77% for the second.

Compared with `NS(=O)(=O)c1ccc(Nc2ccc3nonc3c2[N+](=O)[O-])cc1`, `O=C(CSc1nc(Nc2ccccc2)nc(N2CCOCC2)n1)N1CCc2ccccc21` is lower in “hERG current change (%, negative = inhibition) at 10uM” value: 9.07% for the first, -1.62% for the second.

With `Cc1cc(C)n2nc(CCCCc3nc4nc(C)cc(C)n4n3)nc2n1` the “hERG current change (%, negative = inhibition) at 10uM” value was 9.77%.
